Measurements reported in PubChem BioAssay AID1461 (National Center for Advancing Translational Sciences (NCATS), 2008).
Screen size: about 220,000 compounds; about 2,300 (1%) were called active. The shares of active, inactive and inconclusive entries below differ from those in the screen. Calls follow the shape of the dose curve; as a rule, active = well fitted inhibition curve with a large enough effect; inconclusive = small, poorly fitted or top-dose-only effect, or effect the other way; inactive = no such curve, though single readings can be large or run the other way. Potencies of inconclusive entries are left out as doubtful fits.

Molecular target: Neuropeptide S receptor (Homo sapiens) (UniProt Q6W5P4)
Assay: qHTS Assay for Antagonists of the Neuropeptide S Receptor: cAMP Signal Transduction; also: nearly all actives have a fitted effect of over 50% in size
Conditions: CHO-NPSR cells, cAMP TR-FRET, antagonist mode; series mostly up to 38.3 µM
Potency is read from the fitted curve at half-maximal effect; tags tell the direction and shape of the fitted curve.

UniProt Q6W5P4, sequence (Q6W5P4 whole entry, looked up): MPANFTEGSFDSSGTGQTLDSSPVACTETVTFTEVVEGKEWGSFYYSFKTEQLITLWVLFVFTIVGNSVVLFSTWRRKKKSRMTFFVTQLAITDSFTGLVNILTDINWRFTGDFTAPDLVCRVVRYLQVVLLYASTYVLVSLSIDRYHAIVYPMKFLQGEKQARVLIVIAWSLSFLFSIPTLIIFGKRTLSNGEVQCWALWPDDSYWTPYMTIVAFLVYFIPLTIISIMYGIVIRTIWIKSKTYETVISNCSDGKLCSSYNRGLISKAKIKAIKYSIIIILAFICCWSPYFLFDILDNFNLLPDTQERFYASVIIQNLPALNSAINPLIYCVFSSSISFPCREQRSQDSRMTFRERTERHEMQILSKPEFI

**Q.** For `COC(=O)CSc1nc2[nH]ncc2c(=O)[nH]1`, which Potency is on record?
**A.** inactive

**Q.** `Cn1ccc(/C=N/N=C2/NC(=O)CS2)n1` was tested. Which Potency did it give?
**A.** inactive

**Q.** For `CCN(CCCNC(=O)C1CCC(=O)N1C(C)C)c1cccc(C)c1` (stereo not drawn), which Potency is on record?
**A.** inconclusive [inhibitor, single point]

**Q.** `O=C(COC(=O)c1n[nH]c2ccccc12)NC(=O)NC1CCCC1` was tested. Which Potency did it give?
**A.** inconclusive [inhibitor, single point]

**Q.** `COc1ccc(S(=O)(=O)Nc2cccc(SC)c2)cc1OC` was tested. Which Potency did it give?
**A.** inactive

**Q.** `CCSc1nnc(-c2cnn(-c3ccccc3)c2-n2cccc2)n1C` was tested. Which Potency did it give?
**A.** inactive

**Q.** With `CC(=O)Nc1cc(N2C(=O)CCC2=O)ccc1Cl` as the molecule, how does the Potency read?
**A.** inactive

**Q.** How did the Potency turn out when `Cc1ccc(-c2cn3c(=S)[nH]nc3s2)cc1` was run?
**A.** inactive

**Q.** For `N#Cc1c(N2CCN(C(=O)c3ccccc3Cl)CC2)nc(-c2ccccc2)c2c1CCCC2`, which Potency is on record?
**A.** inconclusive [inhibitor, partial curve]

**Q.** How did the Potency turn out when `Cc1ccc(/C=N/n2c(-c3ccco3)n[nH]c2=S)s1` was run?
**A.** inactive

**Q.** With `CCOC(=O)C1CCN(c2nc(-c3ccccc3)nc3c2oc2ccccc23)CC1` as the molecule, how does the Potency read?
**A.** active: 12.6 µM

**Q.** For `COc1cccc(CN(C(=O)Cc2c[nH]c3ccccc23)C(C(=O)NC2CCCCC2)c2cccs2)c1` (stereo not drawn), which Potency is on record?
**A.** inconclusive [inhibitor, full curve, poor fit]

**Q.** How did the Potency turn out when `C=CCC(c1ccccc1)N(C(C)=O)c1ccco1` (stereo not drawn) was run?
**A.** inactive

**Q.** `Cc1cc(C(=O)NCCC(c2ccccc2)c2ccccc2)c(C)o1` was tested. Which Potency did it give?
**A.** inconclusive [inhibitor, single point]

**Q.** How did the Potency turn out when `COc1ccc(-c2nc3ccccc3o2)cc1NC(=O)c1ccc(Br)o1` was run?
**A.** inconclusive [inhibitor, single point]

**Q.** `COC(=O)c1ccccc1-c1ccc(/C=N/Nc2nc(N3CCCC3)nc(N3CCCC3)n2)o1` was tested. Which Potency did it give?
**A.** inconclusive [inhibitor, single point]

**Q.** For `CCN(CC)S(=O)(=O)c1cccc(-c2nnc(SCc3nc4ccccc4s3)o2)c1`, which Potency is on record?
**A.** inconclusive [inhibitor, single point]

**Q.** For `CCCCC(CC)C(=O)Nc1ccc(C#N)cc1` (stereo not drawn), which Potency is on record?
**A.** inactive

**Q.** `CCOC(=O)c1c(NC(=O)CSc2nnc(N)s2)sc(C)c1-c1ccc(C)cc1` was tested. Which Potency did it give?
**A.** inconclusive [inhibitor, single point]

**Q.** Which Potency does the source give for `CN1CCc2c(sc(NC(=O)c3ccc(S(=O)(=O)N4CCc5ccccc54)cc3)c2C(N)=O)C1` here?
**A.** inactive

**Q.** How did the Potency turn out when `COc1cc(/C=N/Nc2ccccn2)cc(OC)c1O` was run?
**A.** inactive

**Q.** Which Potency does the source give for `Cc1ccc(N2CN=C(c3ccccc3)NC2=S)cc1` here?
**A.** inconclusive [inhibitor, single point]

**Q.** For `Cc1cc(=O)oc2cc(OC(=O)CCN3C(=O)c4ccccc4C3=O)ccc12`, which Potency is on record?
**A.** inactive
